Binding data for one molecule are collected here from publication PMC8888634.

Amino acid sequences for entries named in this document (tags omitted).
UniProt P51532: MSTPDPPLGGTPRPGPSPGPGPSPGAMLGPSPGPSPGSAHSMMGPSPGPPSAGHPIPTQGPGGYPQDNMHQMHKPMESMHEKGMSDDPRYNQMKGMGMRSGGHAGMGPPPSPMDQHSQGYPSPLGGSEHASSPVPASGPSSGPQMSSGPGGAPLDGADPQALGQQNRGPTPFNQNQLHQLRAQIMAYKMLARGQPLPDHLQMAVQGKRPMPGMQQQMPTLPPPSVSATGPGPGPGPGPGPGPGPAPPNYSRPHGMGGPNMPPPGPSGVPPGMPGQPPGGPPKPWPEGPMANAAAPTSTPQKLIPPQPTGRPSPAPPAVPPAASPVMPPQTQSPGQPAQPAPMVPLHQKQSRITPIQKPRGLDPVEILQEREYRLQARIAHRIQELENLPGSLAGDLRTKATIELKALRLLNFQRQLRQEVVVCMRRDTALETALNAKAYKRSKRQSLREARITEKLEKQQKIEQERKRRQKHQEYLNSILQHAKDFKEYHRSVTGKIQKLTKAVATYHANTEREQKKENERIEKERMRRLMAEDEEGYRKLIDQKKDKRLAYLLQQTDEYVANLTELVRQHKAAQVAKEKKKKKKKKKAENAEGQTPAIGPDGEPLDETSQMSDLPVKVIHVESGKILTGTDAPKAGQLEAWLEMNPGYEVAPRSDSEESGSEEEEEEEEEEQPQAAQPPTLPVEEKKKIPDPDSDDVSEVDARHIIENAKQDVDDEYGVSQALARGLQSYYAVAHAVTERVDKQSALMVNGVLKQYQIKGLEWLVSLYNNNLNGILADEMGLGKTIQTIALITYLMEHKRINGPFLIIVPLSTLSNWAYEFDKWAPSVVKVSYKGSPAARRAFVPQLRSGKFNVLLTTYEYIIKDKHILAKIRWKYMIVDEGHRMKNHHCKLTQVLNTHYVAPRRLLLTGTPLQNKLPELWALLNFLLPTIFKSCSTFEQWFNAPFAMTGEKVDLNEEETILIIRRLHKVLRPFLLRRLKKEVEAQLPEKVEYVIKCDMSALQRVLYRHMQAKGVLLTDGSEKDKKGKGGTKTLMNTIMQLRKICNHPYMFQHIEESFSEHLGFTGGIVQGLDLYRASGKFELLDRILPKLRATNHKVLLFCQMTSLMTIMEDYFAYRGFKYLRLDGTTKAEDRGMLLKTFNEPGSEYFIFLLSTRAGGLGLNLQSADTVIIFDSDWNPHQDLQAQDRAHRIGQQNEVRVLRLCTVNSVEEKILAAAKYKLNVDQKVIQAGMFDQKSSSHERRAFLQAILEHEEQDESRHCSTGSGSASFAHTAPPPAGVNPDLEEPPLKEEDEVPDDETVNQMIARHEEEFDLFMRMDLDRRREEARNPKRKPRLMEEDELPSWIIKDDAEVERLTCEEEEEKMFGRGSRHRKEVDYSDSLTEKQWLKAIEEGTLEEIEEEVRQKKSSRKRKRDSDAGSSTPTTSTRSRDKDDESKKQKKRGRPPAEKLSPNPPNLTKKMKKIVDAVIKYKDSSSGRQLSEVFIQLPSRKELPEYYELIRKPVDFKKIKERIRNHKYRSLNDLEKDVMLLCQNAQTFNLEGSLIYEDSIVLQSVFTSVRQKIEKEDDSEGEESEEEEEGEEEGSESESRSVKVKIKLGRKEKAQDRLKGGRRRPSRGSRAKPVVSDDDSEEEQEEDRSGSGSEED

These are yes or no findings as the source states them, for the method shown. Binding seen in cells or lysates may run through a third protein. Some entries that bind do so weakly or less than the wild type.

The assay concerns the target Brg1, the ATPase subunit of the SWI/SNF chromatin remodeling complex, endogenous in prostate cancer cells (human (endogenous in VCaP)) (UniProt P51532). Kind of assay: co-IP; endogenous proteins, VCaP cells; anti-OTUD6A or anti-Brg1, anti-AR antibodies, IgG as negative control; lysis in EBC buffer (50 mM Tris pH 8.0, 120 mM NaCl, 0.5% NP-40), overnight at 4 °C, washes with NETN buffer; immunoblot. For orientation: In western blotting, separated proteins are transferred to a membrane and probed.

B1: OTUD6A, endogenous in prostate cancer cells (enzyme, UniProt Q7L8S5 1-288)
chain: MDDPKSEQQRILRRHQRERQELQAQIRSLKNSVPKTDKTKRKQLLQDVARMEAEMAQKHRQELEKFQDDSSIESVVEDLAKMNLENRPPRSSKAHRKRERMESEERERQESIFQAEMSEHLAGFKREEEEKLAAILGARGLEMKAIPADGHCMYRAIQDQLVFSVSVEMLRCRTASYMKKHVDEFLPFFSNPETSDSFGYDDFMIYCDNIVRTTAWGGQLELRALSHVLKTPIEVIQADSPTLIIGEEYVKKPIILVYLRYAYSLGEHYNSVTPLEAGAAGGVLPRLL
With B1, the binding result is listed as “binds”.
